Experimental data from PubChem BioAssay AID686978 (National Center for Advancing Translational Sciences (NCATS), 2013).
“And” between values parts separate entries of the source, which are not always exact repeats. Identical values can stand only once. Screen size: about 420,000 compounds; about 64,000 (15%) were called active. Inconclusive means that the source gave no clear call. Such entries were picked first, then a sample of the others. The call rests on the fitted dose curve; in most records, active means well fitted inhibition curve with a large enough effect; inconclusive means small, poorly fitted or top-dose-only effect; inactive means flat fitted curve, though single readings scatter. A potency beside an inconclusive call is a rough fit, not a confirmed value.

Test: qHTS for Inhibitors of human tyrosyl-DNA phosphodiesterase 1 (TDP1): qHTS in cells in absence of CPT; further: nearly all actives have a fitted effect of over 55% in size
Details: DT40 Tdp1-/- hTDP1 cells, no CPT, ATP luminescence, 48 h; activity change, negative = growth inhibition: at 46.2 µM (top of the series) unless noted
How it was run: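 Compound effects on proliferation are scored in DT40 Tdp1-/-;hTDP1 cells in the absence of CPT. ATP levels (CellTiter-Glo luminescence) are recorded after a ≥48 hr, 37 °C incubation.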
On the % scale 0 is the no-effect control and ±100 the full control effect; potency means the concentration at half of the fitted maximal effect; tags describe the fitted curve by direction and shape.

Row | SMILES | Potency | activity change, negative = growth inhibition
1 | Cc1ccc(CSc2ncc(Cl)c(C(=O)Oc3ccccc3F)n2)cc1 | inactive | –
2 | Cc1ccc(Cn2c(=O)n(-c3cccc(C(F)(F)F)c3)c(=O)c3c(C)c(C)sc32)c(C)c1 | inconclusive: 14.6 µM [inhibitor, partial curve] | –
3 | CCCOc1ccc(NC(=O)Cc2ccc(S(=O)(=O)N3CCOCC3)s2)cc1OCCC | inconclusive: 20.6 µM [inhibitor, single point] | –
4 | Cn1nccc1/C=C(/C#N)S(=O)(=O)c1ccccc1 | inconclusive: 29.1 µM [inhibitor, single point] | –
5 | COc1ccc(-c2cc3nc(C)c(CCC(=O)NCCc4ccc(Cl)cc4)c(C)n3n2)c(OC)c1 | active: 29.1 µM | –
6 | CCNc1nc(NCC)nc(SCCOC(=O)c2ccccc2)n1 | inconclusive: 25.1 µM [inhibitor, single point] | –
7 | Oc1ccc2[nH]ccc2c1 | inconclusive: 16.4 µM [inhibitor, partial curve] | –
8 | Cc1ccc(-c2nn3c(=O)cc(CN4CCN(C(=O)Nc5cccc(C(F)(F)F)c5)CC4)nc3s2)cc1 | inconclusive: 6.51 µM [inhibitor, partial curve] | –
9 | Cc1ccc2cccc(S(=O)(=O)N3CCN(c4ccccc4F)CC3)c2n1 | inactive | –
10 | COc1ccc(CN(CC(=O)NCC2CCCO2)C(=O)CCC(=O)Nc2cc(C)on2)cc1 (stereo unspecified) | inactive | –
11 | CC(C)(NC(=O)N1CCOCC1)c1cccc(C(C)(C)NC(=O)N2CCOCC2)c1 | inactive | –
12 | Cc1ccccc1NC(=O)c1cccc(Cn2cc(Br)c([N+](=O)[O-])n2)c1 | inconclusive: 18.4 µM [inhibitor, single point] | –
13 | CCCCCCN=C(C)c1ccccc1O | inactive | –
14 | C#CCOCCOCCOCCNc1nc(N2CCN(C(=O)CCCCCCCCCCNC(=O)[C@H]([C@@H](C)CC)n3cc(CCCCCN)nn3)CC2)nc(N2CCN(C(=O)CCCCCCCCCCNC(=O)[C@@H]([C@H](C)O)n3cc(C)nn3)CC2)n1 | inconclusive: 20.6 µM [inhibitor, single point] | –
15 | Cc1cccc(OCCNC(=O)c2ccc(Cl)c(S(=O)(=O)NCc3cccnc3)c2)c1 | active: 2.59 µM | –
16 | CCC(CO)Oc1cc(NCc2ccc(Cl)cc2)c2ncn(C(C)C)c2c1 (stereo unspecified) | inconclusive: 29.1 µM [inhibitor, single point] | –
17 | O=C(COC(=O)C1CCN(c2ccc(C(F)(F)F)cn2)CC1)NC1CCCCC1 | inconclusive: 10.3 µM [inhibitor, partial curve] | –
18 | O=C(Nc1nc2c(F)cccc2s1)c1ccc([N+](=O)[O-])o1 | active: 16.4 µM | –
19 | COc1cc(C(=O)OCC(=O)NC(=O)NCc2ccccc2)ccc1OC(F)F | inactive | –
20 | CSc1cccc(CN2CCC(CO)(Cc3ccccc3)CC2)c1 | inconclusive: 29.1 µM [inhibitor, single point] | –
21 | COc1ccc(-c2cc3nc(-c4ccccc4)cc(N4CCC(O)CC4)n3n2)cc1 | inconclusive: 25.9 µM [inhibitor, single point] | –
22 | COc1ccccc1C1C(C(=O)c2cc3ccccc3o2)=C(O)C(=O)N1c1cc(C)on1 (stereo unspecified) | inconclusive: 23.1 µM [inhibitor, single point] | –
23 | Cn1c(=O)c(C(=O)NCCCc2ccccc2)c(O)c2ccccc21 | inconclusive: 29.1 µM [inhibitor, single point] | –
24 | CN(CC(=O)Nc1ccccc1Br)C(=O)c1cc(Cl)nc2ccccc12 | inactive | –

Row | SMILES | Potency | activity change, negative = growth inhibition
25 | COc1ccc(OC)c(C2CC(=O)c3c([nH]c(C(=O)OCc4ccc(C)cc4)c3C)C2)c1 (stereo unspecified) | active: 0.651 µM | –
26 | COc1ccccc1NC(=O)Cc1csc(NC(=S)Nc2ccccc2)n1 | active: 6.51 µM | –
27 | CS(=O)(=O)c1ccc(Cl)c(NC(=O)c2cccc(-n3cnnn3)c2)c1 | inconclusive: 8.2 µM [inhibitor, partial curve] | –
28 | O=c1c2ccccc2nc2n1C(CSCc1ccccc1)CS2 (stereo unspecified) | active: 6.51 µM | –
29 | CC(C)c1ccc(C(O)c2cnc(C(C)C)n2C)cc1 (stereo unspecified) | inconclusive: 14.6 µM [inhibitor, single point] | –
30 | O=c1[nH]cc(NCc2ccccc2)c(=O)[nH]1 | inactive | –
31 | CCc1nn(CC(=O)NCc2ccc(C)cc2)c(=O)c2cc3occc3n12 | inactive | –
32 | COC(=O)c1cc(NC(=O)CN(c2ccc(OC)cc2)S(=O)(=O)c2ccc(F)cc2)ccc1Cl | active: 18.4 µM | –
33 | Cc1ccc(NC(=O)C2(C)CCN2C(=O)CC(c2ccccc2)c2ccccc2)cc1 (stereo unspecified) | inconclusive: 20.6 µM [inhibitor, single point] | –
34 | CCOc1ccc(N(CC(=O)NC2CCCCC2)C(=O)CCC(=O)Nc2nccs2)cc1 | inactive | –
35 | CCc1nc2c(OCCc3cccc(OC)c3)cccn2c1N(C=O)Cc1ccccc1 | inconclusive: 20.6 µM [inhibitor, single point] | –
36 | CCn1c(O)c(C=NCc2cccs2)c(=O)n(CC)c1=S | inactive | –
37 | CCN(CC)S(=O)(=O)c1ccc(C)c(NC(=O)CSc2ncc(C(F)(F)F)cc2Cl)c1 | active: 23.1 µM | –
38 | CCN(CC)S(=O)(=O)c1ccc(N2CCOCC2)c(NC(=O)c2ccccc2)c1 | inconclusive: 13 µM [inhibitor, partial curve] | –
39 | CCOc1ccc(C(=O)/C=C/c2cn(CC(O)CN3CCc4ccccc43)c3ccccc23)cc1 (stereo unspecified) | active: 8.2 µM | –
40 | Cc1cc(NC(=O)CC(F)(F)F)n(-c2ccccc2)n1 | inactive | –
41 | CCC(=O)c1ccc(OCC(O)CNCc2ccc(F)cc2)cc1 (stereo unspecified) | inactive | –
42 | NC(=O)c1ccccc1NC(=O)CS(=O)(=O)Cc1ccccc1 | inconclusive: 20.6 µM [inhibitor, single point] | –
43 | Cc1cc(C)cc(N2C(=O)N(Cc3cc(=O)n4ccccc4n3)c3ccccc3S2(=O)=O)c1 | inconclusive: 23.1 µM [inhibitor, partial curve] | –
44 | Cc1ccc(-c2c(C(=O)N3CCN(c4ccc(F)cc4)CC3)oc(=O)c3ccccc23)cc1 | inconclusive: 23.1 µM [inhibitor, single point] | –
45 | CC1(C)NC(=O)N(CCCCOc2ccc(Cl)cc2)C1=O | inconclusive: 29.1 µM [inhibitor, single point] | –
46 | CCOC(=O)/C=C1\SCC(=O)N1CC(=O)NC(c1ccccc1)c1ccccc1 | inconclusive: 16.4 µM [inhibitor, single point] | –
47 | CC(C)c1ccc(/C=C2\SC(N3CCCC3)=NC2=O)cc1 | active: 23.1 µM | –
48 | Cc1cc(C)nc(N/N=C/c2c(CO)cnc(C)c2O)n1 | inconclusive: 14.6 µM [inhibitor, partial curve] | –

Row | SMILES | Potency | activity change, negative = growth inhibition
49 | NC(=O)CSc1nc(C23CC4CC(CC(C4)C2)C3)nc2ccccc12 | active: 25.9 µM | –
50 | COc1ccc(-n2nc(C(=O)NCC(=O)N3CCN(c4ccccc4F)CC3)c3ccccc3c2=O)cc1 | active: 23.1 µM | –
51 | CN(C)c1ccc(S(=O)(=O)NCC(=O)NCCC2=CCCCC2)cc1[N+](=O)[O-] | inactive | –
52 | O=C(COC(=O)c1cc(=O)[nH]c(=O)[nH]1)Nc1cccc(S(=O)(=O)N2CCOCC2)c1 | inactive | –
53 | CCOC(=O)c1c(C)[nH]c(C(=O)OCC(O)=C(C#N)c2nc3ccccc3[nH]2)c1C | inconclusive: 29.1 µM [inhibitor, single point] | –
54 | Cc1ccc(S(=O)(=O)c2nnn3c2nc(NCCCN2CCCC2=O)c2ccccc23)cc1C | inactive | –
55 | Cc1cccc2c1-c1sc(C(=O)NCCCN3CCN(c4ccccc4F)CC3)cc1CO2 | active: 6.51 µM | –
56 | CC(C)Cn1c(N)c(C(=O)COC(=O)c2ccc3c(c2)OCCO3)c(=O)n(C)c1=O | active: 20.6 µM | –
57 | Brc1cc2c(cc1Br)OCCOCCOCCOCCO2 | active: 10.3 µM | –
58 | O=C1C=C(C#Cc2ccc(Oc3ccccc3)cc2)C[C@@H](c2ccc(F)cc2)C1 | active: 11.6 µM | –
59 | Cc1ccc(NC(=O)c2oc3ccc(S(=O)(=O)N4CCOCC4)cc3c2C)c(C)c1 | inconclusive: 18.4 µM [inhibitor, single point] and inconclusive: 25.9 µM [inhibitor, partial curve] | –
60 | COc1ccc(CNC(=O)Cc2coc3ccc(C)cc23)cc1 | inactive | –
61 | CCC(CC)C(=O)Nc1cccc(C(=O)Nc2ccc3c(c2)OCO3)c1 | inconclusive: 18.4 µM [inhibitor, single point] | –
62 | O=C(CCS(=O)(=O)c1nc(-c2ccc3c(c2)OCO3)cc(C(F)(F)F)n1)Nc1ccc(Br)cc1 | active: 3.26 µM | –
63 | Cc1cc(C)cc(NC(=O)COC(=O)Cn2cnc3c2c(=O)n(C)c(=O)n3C)c1 | inactive | –
64 | COc1cccc(NC(=S)NC(=O)c2cncc(Br)c2)c1 | inconclusive: 10.3 µM [inhibitor, single point] | –
65 | CCN1/C(=C/C(=S)Nc2ccccc2)Sc2ccccc21 | active: 4.11 µM | –
66 | CSc1ncnc2c1ncn2CCCN1CCN(c2ncccn2)CC1 | inconclusive: 29.1 µM [inhibitor, single point] | –
67 | CN(CC(=O)Nc1ccc(F)c(F)c1F)C(=O)/C=C/c1ccc(Cl)cc1 | – | inconclusive: -32.6% [inhibitor]
68 | COc1ccc(C(=O)OCC(=O)Nc2sccc2C(N)=O)cc1[N+](=O)[O-] | inactive | –
69 | CC(C)OCCCNC(=O)c1ccccc1NC(=O)C1=CSCCO1 | inconclusive: 10.3 µM [inhibitor, partial curve, poor fit] | –
70 | COc1ccc(S(=O)(=O)N2CCCC2C(=O)Nc2ccc(O)cc2)cc1 (stereo unspecified) | inconclusive: 9.2 µM [inhibitor, partial curve] | –
71 | CN1CCN(NC(=O)Nc2cc(Cl)cc(Cl)c2)CC1 | inconclusive: 18.4 µM [inhibitor, single point] | –
